Here are results for 58 compounds from publication PMC4336329 (PLoS ONE, 2015).

Among all 310,000 compounds or so, about 14,000 (4.5%) showed an effect of 50% or more. The effect is printed as a negative number. This is one part of the list.
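Further: peak tail current of the secondary pulse compared with the same well before compound.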

Sequence of human ether-à-go-go-related gene (hERG) potassium channel (Q12809 whole entry, looked up): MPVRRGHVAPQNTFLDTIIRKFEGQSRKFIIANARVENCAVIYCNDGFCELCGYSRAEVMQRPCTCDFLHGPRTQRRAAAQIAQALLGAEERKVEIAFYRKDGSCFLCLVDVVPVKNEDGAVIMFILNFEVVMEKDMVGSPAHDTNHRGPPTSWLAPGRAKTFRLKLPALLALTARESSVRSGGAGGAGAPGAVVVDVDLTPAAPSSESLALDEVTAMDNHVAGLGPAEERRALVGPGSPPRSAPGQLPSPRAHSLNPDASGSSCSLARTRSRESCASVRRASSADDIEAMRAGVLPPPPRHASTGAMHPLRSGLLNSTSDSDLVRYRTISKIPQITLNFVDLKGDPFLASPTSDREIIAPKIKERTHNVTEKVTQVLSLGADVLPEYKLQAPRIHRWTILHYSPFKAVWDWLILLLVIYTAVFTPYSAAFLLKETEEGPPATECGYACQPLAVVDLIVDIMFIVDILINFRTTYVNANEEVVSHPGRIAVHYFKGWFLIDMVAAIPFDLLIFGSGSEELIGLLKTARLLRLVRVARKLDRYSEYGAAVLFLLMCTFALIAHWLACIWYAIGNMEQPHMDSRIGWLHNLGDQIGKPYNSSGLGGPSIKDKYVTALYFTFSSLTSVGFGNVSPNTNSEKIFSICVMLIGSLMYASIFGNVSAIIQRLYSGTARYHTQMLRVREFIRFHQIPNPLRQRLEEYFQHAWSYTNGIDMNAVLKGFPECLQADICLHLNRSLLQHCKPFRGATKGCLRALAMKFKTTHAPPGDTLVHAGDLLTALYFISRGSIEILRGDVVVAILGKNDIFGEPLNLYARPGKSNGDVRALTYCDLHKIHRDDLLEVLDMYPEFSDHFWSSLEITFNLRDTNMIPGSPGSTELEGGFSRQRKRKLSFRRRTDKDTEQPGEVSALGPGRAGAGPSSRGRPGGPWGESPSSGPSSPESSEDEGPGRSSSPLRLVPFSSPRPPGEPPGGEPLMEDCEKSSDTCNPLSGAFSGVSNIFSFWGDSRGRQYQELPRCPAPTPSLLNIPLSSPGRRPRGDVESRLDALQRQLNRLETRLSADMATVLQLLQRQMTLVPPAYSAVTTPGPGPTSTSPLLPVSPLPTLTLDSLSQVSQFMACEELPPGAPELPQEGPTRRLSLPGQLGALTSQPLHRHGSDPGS

The experiment concerns the target human ether-à-go-go-related gene (hERG) potassium channel (human, UniProt Q12809). Kind of experiment: primary screen, population patch clamp on CHO cells stably expressing hERG.
Regarding `CCOc1ccccc1OCC(=O)Nc1ccccc1C(=O)NC1CC1`, the “hERG current change (%, negative = inhibition) at 10uM” value was 3.61%.
Consider `FC(F)(F)c1nnc(-c2ccccc2)nc1Oc1ccc(Cl)cc1Cl`, for which the “hERG current change (%, negative = inhibition) at 10uM” value is 19.1%.
The figure for `CCN1CCN(S(=O)(=O)c2ccc(S(=O)(=O)NCC3CCCO3)cc2)CC1` (stereo not shown) is 11.5%; for `COc1ccc(/C=N/N2CCOCC2)cc1OCc1ccccc1` it is 14.1%.
In the case of `Cc1cc(NC(=O)c2ccccc2-c2ccccc2C(=O)O)no1`, the “hERG current change (%, negative = inhibition) at 10uM” value is on record as 4.5%.
Regarding `O=C(O)Cn1c(=O)c2cccn2c2ccccc21`, the “hERG current change (%, negative = inhibition) at 10uM” value is listed as 12.4%.
In the case of `COCCNc1nnc(Cc2ccccc2)c(=O)[nH]1`, the “hERG current change (%, negative = inhibition) at 10uM” value is 29%.
As for `O=C(CSc1ccc2ccccc2c1)Nc1ccncc1`, the figure is 0.863%.
As for `COc1ccccc1NS(=O)(=O)c1ccc(C(=O)N2CCCC(C(F)(F)F)C2)cc1` (stereo not shown), the figure is -19.2%; as for `CCOc1cc(C2NC(=O)NC(C)=C2C(=O)NCc2ccccc2)c(Cl)cc1O` (stereo not shown), -4.98%; as for `Cn1c(=O)c2nc(NCc3ccccc3)cnc2n(C)c1=O`, -1.44%.
With `CCC(C)N1CCCCC1C(=O)Nc1c(C)cc(C)cc1C.Cl` (stereo not shown), the “hERG current change (%, negative = inhibition) at 10uM” value is on record as -12.7%.
For the compound `CCCNC(=O)C(Cc1ccc(Cl)cc1)NC(=O)c1ccc(-c2ccccc2)cc1` (stereo not shown), the “hERG current change (%, negative = inhibition) at 10uM” value was 10.9%.
`O=C1C(=O)N(CNc2ccccn2)c2ccccc21`: the “hERG current change (%, negative = inhibition) at 10uM” value is on record as 15.1%.
The figure for `Cc1ccc(NC(=O)CCSc2nnc(C)o2)cc1` is 2.48%; for `Cc1cc(C)cc(NC(=O)C2CCN(C(=O)[C@@H]3Cc4ccccc4CN3)CC2)c1` it is -67.7%.
As for `CCCC(=O)Nc1cc(-c2nc3ncccc3o2)ccc1C`, the figure is 10.1%; as for `C#CCNC(=O)C1=C[C@@H](c2ccc(C(F)(F)F)cc2)C[C@@H](OCCCCO)O1`, -53.8%; as for `COc1ccc(CC(=O)Nc2ccc(N3CCOCC3)cc2)cc1OC`, 15.4%.
As to `Nn1c(SCc2cn3ccccc3n2)nnc1-c1ccncc1`, the “hERG current change (%, negative = inhibition) at 10uM” value is recorded as 12%.
The figure for `Cc1cc2oc(C(=O)Nc3ccc(S(N)(=O)=O)cc3)c(C)c2cc1Cl` is 5.54%; for `CCC1CCC2(CC1)SCC(=O)N2c1ccccc1` (stereo not shown) it is 5.31%; for `CCCC(=O)Nc1ccc(Cl)c(NC(=O)c2cccnc2Cl)c1` it is 24.3%.
The figure for `CN(C)CCNS(=O)(=O)c1ccc(Cl)cc1` is 11%; for `COc1cc(C(=O)N2CCN(Cc3ccc4c(c3)OCO4)CC2)c([N+](=O)[O-])cc1OC` it is -10.4%; for `CC(=O)c1ccc(NC(=O)c2noc(C(C)C)c2[N+](=O)[O-])cc1` it is 19.9%.
The figure for `COc1cc(C(=O)NCc2ccc(C(=O)NCC(OC)OC)cc2)cc(OC)c1OC` is 17.2%; for `COc1ccc(CC(=O)Nc2ccccc2C(=O)NCCc2ccccc2)cc1` it is 20.9%; for `Cc1csc(N(C(=O)c2ccccc2F)c2ccccc2)n1` it is 13.9%.
Take `CCC(=O)Nc1cccc(NC(=S)NC(=O)c2ccccc2Cl)c1`: the “hERG current change (%, negative = inhibition) at 10uM” value was determined as 9.98%.
On to `CCOc1ncccc1C(=O)OCC(=O)Nc1ccc(-c2nc3ccc(C)cc3s2)cc1`, for which the “hERG current change (%, negative = inhibition) at 10uM” value was 16%.
The figure for `CCCCCNC(=O)c1ccc2c(=O)n(CCCN3CCCC3=O)c(=S)[nH]c2c1` is -3.01%.
On to `Cc1cc(CNC(=O)c2cccc(OC3CCN(S(=O)(=O)N(C)C)CC3)c2)on1`, for which the “hERG current change (%, negative = inhibition) at 10uM” value is listed as 0.225%.
The figure for `O=C(CCNC(=O)c1ccccc1)OCC(=O)c1ccccc1` is 23%; for `COC(=O)c1c(C(=O)OC)c(-c2ccc(C)cc2)n2c1CS(=O)(=O)C2` it is -18.1%; for `COc1cc(NC(=O)Cc2cccs2)cc(OC)c1` it is -1.87%.
Consider `COc1ccccc1CNc1ncccn1.O=C(O)C(=O)O`, for which the “hERG current change (%, negative = inhibition) at 10uM” value was 23.6%.
As for `O=C(CCCCCn1c(=S)[nH]c2cc3c(cc2c1=O)OCO3)N1CCN(c2ccc(F)cc2)CC1`, the figure is 3.78%; as for `O=C(O)c1cc(CN2CCOCC2)oc1-c1ccccc1`, 13.2%; as for `COc1ccc(-n2c(SCC(=O)N3CCCC(C)C3)nnc2-c2cccnc2)cc1` (stereo not shown), -13.8%.
As for `O=C(O)c1cn(-c2ccc(F)cc2)c2cc(Cl)c(F)cc2c1=O`, the figure is 16%; as for `Fc1ccc(C2NCCn3cccc32)cc1.O=C(O)/C=C/C(=O)O` (stereo not shown), -3.11%.
As to `COc1ccc(Cn2nnnc2C(c2cc3ccc(OC)cc3[nH]c2=O)N2CCC(C)CC2)cc1` (stereo not shown), the “hERG current change (%, negative = inhibition) at 10uM” value is given as -24.2%.
In the case of `CN1CCN(CCC(=O)N/N=C/c2ccccc2F)CC1`, the “hERG current change (%, negative = inhibition) at 10uM” value came to 12.1%.
As for `COc1ccc(C(=O)n2cc(C(C)=O)c3ccccc32)cc1`, the figure is 6.09%.
As for `Cc1cccc(C)c1OCc1cc(C(=O)N2CCN(c3ccccc3)CC2C)no1` (stereo not shown), the figure is 7.3%; as for `COc1ccc(CCN(C)C(=O)CCNC(=O)c2ccc(Br)cc2)cc1OC`, -12.5%; as for `CCOc1ccc(N(C(C)C(=O)N/N=C(\C)c2cccc(NC(=O)c3ccccc3)c2)S(C)(=O)=O)cc1` (stereo not shown), -19.4%.
The figure for `CNC(=S)N(Cc1cccs1)Cc1cc2ccc(OC)cc2[nH]c1=O` is 6.44%; for `CC(=O)N1Cc2ccccc2C(C)CC12CCCC2` (stereo not shown) it is -7.34%; for `CCn1c(CNC(=O)C2CCCCC2)cc2ccccc21` it is 26%.
As for `CCCCNc1ccc(C(=O)Nc2cccc(C)n2)cc1[N+](=O)[O-]`, the “hERG current change (%, negative = inhibition) at 10uM” value is listed as 4.74%.
Regarding `O=C(O)CCn1nnc(-c2ccccc2)n1`, the “hERG current change (%, negative = inhibition) at 10uM” value amounted to 8.06%.
In the case of `O=C(/C=C/c1ccco1)Nc1cccc(NC(=O)/C=C/c2ccco2)n1`, the “hERG current change (%, negative = inhibition) at 10uM” value is reported as -4.72%.
Take `O=C(NCCCCCCNC(=O)NCc1ccco1)NCc1ccco1`: the “hERG current change (%, negative = inhibition) at 10uM” value is recorded as -2.97%.
The figure for `CC(C)(C)c1ccc(S(=O)(=O)N2CCC(N3CCCCC3)CC2)cc1` is -36.4%; for `Cn1c(SCc2c(F)cccc2Cl)nc2ccccc2c1=O` it is 18.1%; for `O=C(CN1C(=O)c2ccccc2S1(=O)=O)NCc1cccs1` it is 0.969%.
